Measurements published in PubChem BioAssay AID493208 (National Center for Advancing Translational Sciences (NCATS), 2011).
Hit rate of the full screen: of about 44,000 compounds, about 340 (0.77%) were called active. Not shown: some 5% with an inconclusive outcome. Calls follow the shape of the dose curve; as a rule, active = well fitted inhibition curve with a large enough effect; inconclusive = small, poorly fitted or top-dose-only effect; inactive = flat fitted curve, though single readings scatter. Some of the results follow.

Experiment: Acumen qHTS Assay for Inhibitors of the mTORC1 Signaling Pathway in MEF (Tsc2-/-, p53-/-) Cells: Sytravon;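 also: plate controls were DMSO for no effect and rapamycin for full effect; nearly all actives have a fitted effect of over 50% in size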
Conditions: phospho-rpS6 immunofluorescence/PI, 24 h; series mostly up to 38.3 µM; activity change, negative = inhibition: at the top concentration
Summary of the method: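 Compounds act on Tsc2-/-, p53-/- fibroblasts carrying an empty vector for 24 h before fixation and dual staining for phospho-S6 and DNA (propidium iodide). Values are percentages of cells above a rapamycin-defined pS6/PI threshold.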

Activity change, negative = inhibition, inactive:
COc1ccc(-c2cn3nc(N4CCC(C(=O)Nc5cc(Cl)ccc5C)CC4)sc3n2)cc1 5.88%
COc1ccccc1-c1cc2nc(C)c(CCC(=O)NCCc3cccc(C)c3)c(C)n2n1 -0.0534%
O=C(CCCCCn1c(=O)c2sccc2n(CC(=O)Nc2cc(C(F)(F)F)ccc2Cl)c1=O)NCc1ccccc1Cl -2.21%
CCc1cccc(-n2c(=O)c3cccnc3n2CC(=O)NCc2ccc(C)cc2)c1 2.61%
Cc1ccc(NC(=O)Cn2cnc3onc(-c4ccc(F)cc4)c3c2=O)c(Cl)c1 -7.05%
Cc1ccc(NC(=O)c2cc3ccccn3n2)cc1F 0%
Cc1ccc(Cl)cc1N1CCN(C(=O)CSc2cc(=O)n(C)c3ccccc23)CC1 -8.1%
Cc1cc(C)c(NC(=O)Cn2c(=O)n(CCC(=O)NCc3ccccc3Cl)c(=O)c3sccc32)c(C)c1 1.36%
COc1ccc(C(=O)Nc2ccc3nc(SCC(=O)N(C)c4ccccc4)sc3c2)cc1 -1.95%
O=C(CSc1cn(CCNC(=O)c2cccc(C(F)(F)F)c2)c2ccccc12)Nc1ccc2c(c1)OCCO2 -10.2%
CC(C)(C)c1ccc2c(c1)N(CC(=O)NCCCN1CCN(c3ccccc3F)CC1)C(=O)CO2 -9.42%
CC(C)N(C(=O)Cn1cc(S(=O)(=O)Cc2ccc(Br)cc2)c2ccccc21)C(C)C -7.14%
COc1ccc(NC2=C(c3ccccc3)C(=O)c3ccccc32)cc1Cl -3.66%
CC1CCN(S(=O)(=O)c2ccc3c(c2)N(CC(=O)NCCCN2CCCCC2)C(=O)CS3)CC1 6.88%
Cc1ccc(CNC(=O)c2cc(-c3ccc(C)cc3)nc3n[nH]c(-c4cccc([N+](=O)[O-])c4)c23)cc1 0.304%
O=C(c1ccc(F)cc1)N1CCC(c2nc3ccccc3s2)CC1 -1.04%
CCOc1ccc(S(=O)(=O)NCCc2c(C)[nH]c3c(Cl)cccc23)cc1C 2.21%
Cc1c(C(=O)Nc2ccc(F)c(C(F)(F)F)c2)sc2nc(-c3ccccc3)cn12 0%
O=C(CCn1cccn1)Nc1ccc(Br)cc1F -11.1%
CCOC(=O)CSc1nc2ccc(NC(=O)c3cccc(F)c3)cc2s1 -0.506%
COc1cccc(NC(=O)CN(CCc2ccccc2)S(=O)(=O)c2ccc(Cl)cc2)c1 4.26%
Cc1nc2ccccc2n1CCc1nc2c3ccccc3nc(SCc3ccc(C#N)cc3)n2n1 -3.37%
O=c1c(NCc2cccs2)nccn1-c1ccc(F)cc1 -5.5%
CCOc1ccc(NS(=O)(=O)c2ccc3[nH]c4c(c3c2)CCCCC4)cc1 -0.433%
O=C(COCc1cc(-c2ccc(F)cc2)on1)Nc1cc(F)ccc1F 0.833%
O=S(=O)(NCc1nc2cccnc2n1Cc1ccccc1Cl)c1ccc2c(c1)CCCC2 -4%
Cc1cccc(-c2nc3c4ccccc4nc(NCCc4ccccc4)n3n2)c1 -2.36%
CCOc1ccccc1NS(=O)(=O)c1ccc2c(c1)oc(=O)n2C -11.3%
CCN(CC)CCCNC(=O)Cc1csc2nc(-c3ccc(Cl)cc3)cn12 -13%
CCc1cc2c(cc3c(=O)n(CCCC(=O)NCc4cccc(Cl)c4)ncn32)s1 0.684%
Cc1cccc(CCNC(=O)c2cc3c(=O)n(C)c4ccccc4c3n2C)c1 -11.1%
O=C(CN1C(=O)CCn2nc(-c3ccccc3)cc21)NCc1ccc(Cl)cc1 2.62%
Cc1cc2c(n1-c1ccc(C(=O)NCc3ccccc3Cl)cc1)CCCC2 -11.1%
COc1ccccc1N1CCN(C(=O)c2c(C)oc3ncn(C)c(=O)c23)CC1 2.87%
O=C(CCSCc1ccccc1Cl)NCc1ccc(F)cc1Cl -6.91%
CC(C)c1cnc2c(c1SCC(=O)NCc1ccccc1Cl)c(=O)n(C)c(=O)n2C -10.1%
O=C(c1ccc2c(c1)N(Cc1cccc(F)c1)C(=O)c1ccccc1S2)N1CCCC1 0.706%
COc1ccc(C(CC(=O)Nc2ccc(C(C)=O)cc2)N2Cc3ccccc3C2=O)cc1 (configuration not stated) -12.7%
Cc1cccc2c1-c1sc(C(=O)N(C)c3cccc(Cl)c3)cc1CO2 -11.2%
Cc1cccc(N2CCN(C(=O)c3noc4c3COc3ccc(C)cc3-4)CC2C)c1 (configuration not stated) 8.5%
COc1ccc(NC(=O)NC2COc3ccccc3C2)cc1Cl (configuration not stated) 3.09%
Cc1ccc(CN2C(=O)c3ccccc3CC2(C)C(=O)NC2CCCCC2)cc1 (configuration not stated) 6.5%
CSc1ccc(CCNC(=O)CCc2c(C)nc3ncnn3c2C)cc1 -12.1%
CCOc1ccccc1C(=O)NC1(C(F)(F)F)C(=O)Nc2c1c(=O)[nH]c(=O)n2-c1ccc(F)cc1 (configuration not stated) 9.74%
Cn1nnnc1SCCNCc1cc(Br)ccc1OCc1ccccc1Cl -15.8%
Cc1ccc(C(=O)Nc2cccc3cccnc23)cc1Cl -0.636%
COc1cccc(OC)c1C(=O)NCCc1csc(-c2ccc(Cl)cc2)n1 7.53%
CCOC(=O)c1c(Nc2ccc(OC)cc2)nnc(-c2ccccc2)c1-c1ccccc1 -11%
CCOc1ccc(NC(=O)COc2ccc(S(=O)(=O)NC3CCCCC3)cc2)cc1 -7.61%
CN1CCN(c2ncc3c(n2)CCN(Cc2ccc(Br)s2)C3)CC1 -15.3%
COc1ccc(-c2csc(=Nc3ccccc3)n2CCO)cc1F 1.35%
Cc1ccc(Cl)cc1Nc1nn2c(=O)c3ccc(C(=O)NCc4ccc(F)cc4)cc3nc2s1 -4.74%
Cc1cccn2c(=O)c(C(=O)NCc3cccc(F)c3)cnc12 0.13%
CCOc1ccc(CNC(=O)Cc2ccc(NC(=O)N3CCSc4ncccc43)cc2)cc1 -11.9%
Cc1cccc(-c2nc3scc(CCNS(=O)(=O)c4ccc5c(c4)OCCO5)n3n2)c1 0.0285%
CC(=O)c1ccc(N2CCN(C(=O)C3CCN(S(=O)(=O)c4cn(C)cn4)CC3)CC2)cc1 1.69%
Cn1c(=O)c2sccc2n2c(CCC(=O)NCc3ccc(Cl)cc3)nnc12 -0.503%
CCCOc1ccc(-c2nc(SCC(=O)c3ccc(Cl)cc3)n[nH]2)cc1 -8.4%
CCOC(=O)N1CCc2c(sc3c2c(=O)n(-c2ccc(Cl)cc2)c(=O)n3CC(C)C)C1 -2.16%
COc1ccc(Nc2c(-c3cccc(O)c3)nc3cnccn23)cc1 11%
COc1ccccc1-c1cc(C(=O)NCc2ccccc2)c2c(-c3ccc(C)cc3)[nH]nc2n1 -0.837%
COc1ccc(NC(=O)c2oc3ccccc3c2NC(=O)Cc2coc3c(C)c(C)ccc23)cc1 -2.25%
COc1ccc(-c2nc3cc(NC(=O)CSc4ccc(C)cc4)ccc3o2)cc1 -15.3%
CCc1ccc(NC(=O)Cn2ccn(-c3ccc(C)c(C)c3)c(=O)c2=O)cc1 1.58%
O=C(CSc1n[nH]c(-c2ccc(F)cc2)n1)NCCc1ccccc1 3.87%
Cc1c(Cl)cccc1NC(=O)CCS(=O)(=O)c1ccc2c(c1)CC(=O)N2C 2.37%
Cc1ccc(S(=O)(=O)NCCc2cn3ccsc3n2)c(C)c1 -2.66%
CCN(CC)CCNC(=O)c1c2c(nc3ccccc13)C(=O)N(C1CCCCC1)C2 -0.112%
COc1cccc(NC(=O)Cn2cc(C(=O)c3ccc(C)cc3)c(=O)c3cc(OC)ccc32)c1 -12.7%
Cc1ccccc1NC(=O)Cn1c(=O)n(Cc2ccc3c(c2)OCO3)c(=O)c2ccccc21 -21.2%
Cc1cccc(C2CC(=O)Nc3cc4c(cc32)OCO4)c1 (configuration not stated) -12.4%
CCc1nc2nc(C)cc(Nc3cccc(C)c3C)n2n1 -11.8%
CCc1ccc(NC(=O)CN2C(=O)C3(SCC(=O)N3c3ccc(F)c(F)c3)c3ccccc32)cc1 (configuration not stated) 1.95%
Cc1cc2ccccc2n1CCNC(=O)c1ccc(Br)cc1 1.23%
CC(C)c1ccc(OCC(=O)N(Cc2cccs2)C2CCS(=O)(=O)C2)cc1 (configuration not stated) 1.54%
COc1ccc(CNC(=O)CCc2c(C)c3cc4c(C)c(C)oc4cc3oc2=O)cc1OC 0.115%
O=C(NC1CCCC1)c1ccc2c(=O)n(Cc3ccccc3)c(SCc3cccc(F)c3)nc2c1 -0.525%
CCN(CC)c1ccc(NC(=O)CCCN2C(=O)C(c3ccccc3)Oc3cccnc32)c(C)c1 (configuration not stated) -13.7%
CCOc1cc(Cl)c(S(=O)(=O)n2ccnc2)cc1Cl 3.61%
Cc1nnc(N2CCC(C(=O)NCCC(C)C)CC2)c2nn(-c3ccc(Cl)cc3)c(C)c12 -9.12%
CCC(C(=O)N1CCN(c2ccccc2)CC1)n1c(C)c2cnn(-c3ccccc3)c(=O)c2c1C (configuration not stated) -6.78%
Cc1cc(C)n(C(C)CC(=O)Nc2ccc(C)c(N(C)C)c2)n1 (configuration not stated) -5.37%
C=C(C)CSc1nc(-c2ccccc2)cc(-c2ccc(OC)cc2)c1C#N -13.7%
COC(=O)c1ccc(NC(=O)CN2C(=O)CC(c3ccccc3)Sc3ccccc32)cc1 (configuration not stated) -3.2%
Cc1ccc(N2CC(C(=O)Nc3ccc(N(C)C)cc3)CC2=O)cc1Cl (configuration not stated) -12.6%
Fc1ccccc1N1CCN(c2nc3ccccc3c3nc(-c4ccccc4)nn23)CC1 -3.24%
CSc1ccc(-c2nnc(NC(=O)c3ccc4c(c3)OCCO4)o2)cc1 6.39%
CC(=O)Nc1cccc(-n2cc3c(c2-c2ccccc2Cl)c(=O)n(C)c(=O)n3C)c1 -1.57%
O=C(CCn1ccc2cc(S(=O)(=O)N3CCCC3)ccc21)NCc1ccccc1Br -2.67%
O=C(CN1C(=O)c2cccnc2Oc2ccc(Cl)cc21)Nc1cccc(C(F)(F)F)c1 -9.99%
COc1ccc(C)cc1Nc1cc(C)nc(C)n1 -0.379%
CC(C)Oc1ccc(C(=O)Nc2c(C(=O)Nc3cccc(F)c3)oc3ccccc23)cc1 2.65%
COc1ccc(-c2cc(C(F)(F)F)nc(SCC(=O)NCC(C)C)n2)cc1OC -8.14%
Cc1ccc(CNC(=O)c2ccc(CS(=O)Cc3cccc(Cl)c3)o2)cc1 (configuration not stated) -6.25%
Cc1ccn2c(=O)cc(COc3cccc(NC(=O)Nc4cccc(Cl)c4C)c3)nc2c1 0.408%
COc1ccccc1NC(=O)C1=C(C)Nc2nc3ccccc3n2C1c1cccc(OC)c1OC (configuration not stated) -3.16%
O=C(NCCCN1CCOCC1)c1ccc2c(c1)N(Cc1cccc(Cl)c1)C(=O)c1ccccc1S2 4.12%
